Among all 46,000 compounds or so, about 60 (0.1%) were called active. Not shown: some 3% with an inconclusive outcome. Calls follow the shape of the dose curve; as a rule, active = well fitted inhibition curve with a large enough effect; inconclusive = small, poorly fitted or top-dose-only effect; inactive = no such curve, though single readings can be large or run the other way. Some of the results follow.

The assay in a line: Primary qHTS assay for Inhibitors of ovarian cancer metastasis using an organotypic tumor microenvironment (TME) model. Also: nearly all actives have a fitted effect of over 65% in size.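 As to activity change, negative = inhibition: plate controls were DMSO wells for no effect and tomatine positive control wells for full effect.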 The following applies: SKOV3ip1-GFP adhesion/invasion on 3D omental model, fluorescence; series mostly up to 45.8 µM; activity change, negative = inhibition: at the top concentration. Summed up: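 Primary human omental fibroblast/mesothelial 3D culture pre-formed 48 h. SKOV3ip1-GFP cells added with compounds (0.36-46 umol/L), incubated 2 h RT/16 h 37 C, fixed; GFP cells quantified at 488/509 nm.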
In the case of `CC(Sc1nccn1C)C(=O)Nc1ccccc1C#N` (configuration not stated), the compound was classed as inactive.
For the compound `CCN(CC)c1ccc(NC(=O)c2cc(C)nc3c2c(C)nn3-c2ccc(C)cc2)c(C)c1`, the “activity change, negative = inhibition” value was inactive: 1.34%.
Same read-out and setting: under `COc1ccc(C2c3[nH]c4ccccc4c3CCN2C(=O)CCC2CCCC2)cc1` (configuration not stated) stands inactive: -8.1%; under `COc1ccc(CNC(=O)Cc2c(C)c3cc4c(C)coc4cc3oc2=O)cc1OC`, inactive: 18.3%.
In the case of `CC1CCN(S(=O)(=O)N2CCC(C(=O)NCc3ccccc3Cl)CC2)CC1`, the “activity change, negative = inhibition” value was inactive: -2.97%.
For the compound `COC(=O)c1ccc(Nc2ncnc3c2cnn3C)cc1`, the “activity change, negative = inhibition” value is inactive: -2.53%.
Regarding `CCOC(=O)c1ccc(NC(=O)c2cnn3c(=O)c4c(n(CC)c23)CCN(Cc2ccc(OC)cc2)C4)cc1`, the “activity change, negative = inhibition” value was inactive: 11.8%.
`Cc1cn2c(=O)cc(COC(=O)c3ccc(NC(=O)c4ccc(F)cc4)cc3)nc2s1`: the “activity change, negative = inhibition” value was inactive: -4.96%.
With `CCN(CC)C(=O)c1sc2c(c1C)c(=O)n(Cc1ccccc1)c(=O)n2Cc1ccccc1C`, the “activity change, negative = inhibition” value is inactive: 3.46%.
`CC(=O)c1cccc(NC(=O)Nc2sc3nc4n(c(=O)c3c2C)CCC(C)CC4)c1` (configuration not stated): the outcome was inactive.
`COc1ccc(N2CCN(C(=O)CSc3nc(-c4ccc(C(C)C)cc4)no3)CC2)cc1`: the “activity change, negative = inhibition” value is inactive: -7.53%.
On the same count and under the same terms, under `O=C(CNC(=O)c1ccccc1)OCc1cc(=O)n2nc(C3CCCCC3)sc2n1` stands inactive: 6.56%.
Turning to `CCN(CC)C(=O)c1sc2c(c1C)c(=O)n(-c1ccc(C)c(C)c1)c(=O)n2Cc1cc(=O)n2ccccc2n1`, the “activity change, negative = inhibition” value is inactive: 3.29%.
Same read-out and setting: next, `OCCn1cc(-c2cnc3nnn(Cc4ccc5ncccc5c4)c3n2)cn1`: inactive: -21.7%; `Cc1ccsc1CCN1C(=O)N(c2ccccc2)C(=O)C1CC(=O)Nc1ccc(Cl)cc1` (configuration not stated): inactive: 3.45%.
The same measure, in the same setting: under `COc1ccc(-c2nc3scc(CCNS(=O)(=O)c4ccc(Oc5ccccc5)cc4)n3n2)cc1OC` stands inactive: -0.856%; under `O=C(NCc1ccc(F)cc1Cl)c1cc(=O)[nH]c2ccc(S(=O)(=O)N3CCCCC3)cc12`, inactive: -3.49%; under `COc1ccc(-c2nc3scc(CCNS(=O)(=O)c4ccc5c(c4)OCCO5)n3n2)cc1OC`, inactive: -12.7%.
`Cc1ncc([N+](=O)[O-])n1CC(C)O` (configuration not stated): the “activity change, negative = inhibition” value was inactive: 8.81%.
Take `COc1ccc(CNC(=O)Cc2c(C(=O)O)c(C)cn2C)cc1`: the “activity change, negative = inhibition” value is inactive: 1.26%.
For `Clc1ccc(CN2CCN(c3ncnc4sc5c(c34)CCCC5)CC2)cc1Cl`, the “activity change, negative = inhibition” value is inactive: 2.03%.
In the case of `Cc1c(-c2ccccc2)c(=O)oc2ccc(OC(=O)N3CCOCC3)cc12`, the “activity change, negative = inhibition” value is inactive: -9.09%.
As for `Cc1cc(C)cc(OCCSc2nc3ccc(NC(=O)c4cccs4)cc3s2)c1`, the “activity change, negative = inhibition” value was inactive: -5.35%.
As to `CCOc1ccc(C(=O)Nc2c(C(=O)Nc3ccccc3OC)oc3ccccc23)cc1OCC`, the “activity change, negative = inhibition” value is inactive: -0.166%.
Turning to `O=C(CSc1n[nH]c(-c2ccccc2Cl)n1)NCCCc1ccccc1`, the compound was classed as inactive.
`COc1cc(-c2cc(OC)c3c(C)oc(C)c3c(=O)c2)ccc1OC(=O)c1ccc(C)cc1`: the compound was classed as inactive.
`CCOc1ccc(NC(=O)CSC2=Nc3ccccc3C3=NC(CC(=O)NCc4cccs4)C(=O)N23)cc1` (configuration not stated): the “activity change, negative = inhibition” value was inactive: 15.3%.
For `COc1ccc2c(C)c(CC(=O)NCCc3ccc(Cl)cc3)c(=O)oc2c1C`, the “activity change, negative = inhibition” value is inactive: -1.18%.
For `O=C1c2ccccc2-c2onc3c(N4CCN(C5CCCCC5)CC4)cc(NCCO)c1c23`, the outcome was inactive.
For `CC(=O)c1cccc(NC(=O)C2CCN(c3ncnc4c3nc3n4CCCCC3)CC2)c1`, the “activity change, negative = inhibition” value is inactive: -12.4%.
The same measure, in the same setting: next, `CC1=C(c2ccc(C)c(C)c2)S(=O)(=O)N=C1N1CCC(C(=O)NC(C)c2ccccc2)CC1` (configuration not stated): inactive: -20.3%.
As to `CCCN(CCC)C(=O)c1cc2c(=O)n3cccc(C)c3nc2s1`, the outcome was inactive.
Turning to `CCc1ccc2oc(C(=O)N(Cc3ccc(N(C)C)cc3)Cc3ccco3)c(C)c2c1`, the “activity change, negative = inhibition” value was inactive: -3.86%.
Regarding `CC(CCc1ccccc1)NC(=O)Cn1c(=O)nc(-c2ccccc2)c2cc(Cl)ccc21` (configuration not stated), the “activity change, negative = inhibition” value was inactive: -12.9%.
The same measure, in the same setting: under `CCOc1ccccc1CNC(=O)c1sc2ncccc2c1-n1cccc1` stands inactive: 3.25%.
Consider `CC(C)CC(=O)Nc1ccc2nc(SCC(=O)N3CCc4ccccc43)sc2c1`, for which the compound was called inactive.
Consider `CCOC(=O)C1CCCN(S(=O)(=O)c2cc(-c3cc(C)no3)ccc2OC)C1` (configuration not stated), for which the “activity change, negative = inhibition” value was inactive: -0.925%.
For the compound `Cc1ccc(CN(C(=O)c2ccc(C(C)(C)C)cc2)c2ccccn2)o1`, the “activity change, negative = inhibition” value is inactive: 0.523%.
Regarding `COc1ccccc1NC(=O)CSc1ncc2c(n1)-c1ccccc1N(Cc1ccccc1C)S2(=O)=O`, the “activity change, negative = inhibition” value was inactive: 3.62%.
Regarding `COc1cccc(Cn2c(SCC(=O)N3CCN(c4ccc(F)cc4)CC3)nc3ccccc32)c1`, the “activity change, negative = inhibition” value is inactive: -25.8%.
`O=C(CSc1nnc(-c2ccc3c(c2)OCO3)o1)Oc1ccccc1`: the call was inactive.
On to `O=C(COC(=O)c1cc(-c2cccs2)nc2ccccc12)c1ccc(F)cc1`, for which the “activity change, negative = inhibition” value was inactive: 4.46%.
As for `CCn1ccc2cc(S(=O)(=O)N3CCCN(C(=O)Nc4ccccc4F)CC3)ccc21`, the compound was called inactive.
Turning to `CCOc1cc(C2c3c(-c4cc(C)ccc4O)n[nH]c3C(=O)N2CCCOC(C)C)ccc1O` (configuration not stated), the compound was classed as inactive.
`O=C(Nc1cc(-c2ccccc2)sc1C(=O)O)c1cccc(F)c1`: the “activity change, negative = inhibition” value was inactive: -22.8%.
With `COc1ccc(CNC(=O)c2sc3nc4n(c(=O)c3c2C)CCCC4)cc1`, the “activity change, negative = inhibition” value was inactive: -4.83%.
The same measure, in the same setting: next, `COc1cccc(Cc2nc3ccccc3nc2SCC(=O)Nc2cccc(C)c2)c1`: inactive: -12.5%.
